Measurements taken from US20150183871A1 (AbbVie / Abbott, published 2015).
Blank lines part the entries; values can stand above or below the binder they belong to.

Legend:
[1] = target: T1, recombinant human BMP-2 protein (human, UniProt P12643 283-396); assay: solid phase ELISA, coated BMP-2, figure legend
T1 construct: Bought protein
T1 sequence (looked up): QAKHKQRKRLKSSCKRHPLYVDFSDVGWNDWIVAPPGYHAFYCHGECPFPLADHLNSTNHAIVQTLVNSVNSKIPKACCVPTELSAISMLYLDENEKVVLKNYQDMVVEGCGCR

[2] = target: T2, recombinant human BMP-4 protein (human, UniProt P12644 293-408); assay: solid phase ELISA, coated BMP-4, figure legend
T2 construct: Bought protein; also called bone morphogenetic protein 4 (R&D Systems #314-BP)
T2 sequence (looked up): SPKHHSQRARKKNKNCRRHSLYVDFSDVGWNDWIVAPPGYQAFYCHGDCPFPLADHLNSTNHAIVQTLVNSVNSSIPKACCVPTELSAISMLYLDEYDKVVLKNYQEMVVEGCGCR

[3] = target: T3, extracellular domain of the His-tagged human Neogenin protein (human, UniProt Q92859 34-1105); assay: solid phase ELISA, coated Neogenin
T3 construct: extracellular domain; His-tagged
T3 sequence (looked up): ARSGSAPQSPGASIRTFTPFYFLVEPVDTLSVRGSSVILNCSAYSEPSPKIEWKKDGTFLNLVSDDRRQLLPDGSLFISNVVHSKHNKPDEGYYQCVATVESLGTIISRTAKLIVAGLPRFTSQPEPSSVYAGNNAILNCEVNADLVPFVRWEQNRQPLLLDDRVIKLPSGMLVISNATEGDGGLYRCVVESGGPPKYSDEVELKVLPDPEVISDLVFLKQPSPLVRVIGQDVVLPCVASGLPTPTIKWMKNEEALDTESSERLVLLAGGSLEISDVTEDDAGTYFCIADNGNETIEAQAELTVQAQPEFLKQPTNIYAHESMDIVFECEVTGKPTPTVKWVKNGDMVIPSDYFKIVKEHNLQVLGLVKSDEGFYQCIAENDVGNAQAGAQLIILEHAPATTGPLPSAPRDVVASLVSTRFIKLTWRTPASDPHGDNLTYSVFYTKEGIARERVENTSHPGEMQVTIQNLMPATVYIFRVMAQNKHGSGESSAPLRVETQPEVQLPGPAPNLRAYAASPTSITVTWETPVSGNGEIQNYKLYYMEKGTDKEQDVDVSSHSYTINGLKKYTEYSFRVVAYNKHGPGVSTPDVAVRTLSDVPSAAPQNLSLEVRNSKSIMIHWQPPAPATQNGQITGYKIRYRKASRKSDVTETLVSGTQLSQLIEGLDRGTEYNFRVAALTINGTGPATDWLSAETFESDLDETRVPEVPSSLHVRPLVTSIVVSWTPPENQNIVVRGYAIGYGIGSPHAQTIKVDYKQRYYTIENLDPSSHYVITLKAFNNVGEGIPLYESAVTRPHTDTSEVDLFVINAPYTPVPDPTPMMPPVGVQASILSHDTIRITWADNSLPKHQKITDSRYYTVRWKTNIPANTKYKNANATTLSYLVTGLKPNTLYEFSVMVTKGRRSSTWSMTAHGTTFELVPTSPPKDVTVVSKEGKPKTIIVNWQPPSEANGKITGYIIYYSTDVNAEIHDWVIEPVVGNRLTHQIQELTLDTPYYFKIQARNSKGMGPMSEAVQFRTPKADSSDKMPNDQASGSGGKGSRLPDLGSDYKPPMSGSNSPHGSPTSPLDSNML

- binding result [1]: binds
- binding result [2]: binds
- binding result [3]: binds
B1: fc-coupled full length human RGM A (47-422) (Fc fusion)
chain: DAAQPARRARRTKLPCKILKCNSEFWSATSGSHAPASDDTPEFCAALRSYALCTRRTARTCRGDLAYHSAVHGIEDLMSQHNCSKDGPTSQPRLRTLPPAGDSQERSDSPEICHYEKSFHKHSATPNYTHCGLFGDPHLRTFTDRFQTCKVQGAWPLIDNNYLNVQVTNTPVLPGSAATATSKLTIIFKNFQECVDQKVYQAEMDELPAAFVDGSKNGGDKHGANSLKITEKVSGQHVEIQAKYIGTTIVVRQVGRYLTFAVRMPEEVVNAVEDWDSQGLYLCLRGCPLNQQIDFQAFHTNAEGTGARRLAAASPAPTAPETFPYETAVAKCKEKLPVEDLYYQACVFDLLTTGDVNFTLAAYYALEDVKMLHSNKDKLHLYERTRDLPGLNSADIEGRMD[… human IgG1 Fc …]
notes: the legends call the protein fc-coupled full length hRGM A fragment (47-422, counted on hRGM A); also called full length fc-conjugated hRGM A; Human RGM A-fc

- binding result [2]: binds
B2: fc-coupled human RGM A light chain, fragment 0 (47-168) (Fc fusion)
chain: DAAQPARRARRTKLPCKILKCNSEFWSATSGSHAPASDDTPEFCAALRSYALCTRRTARTCRGDLAYHSAVHGIEDLMSQHNCSKDGPTSQPRLRTLPPAGDSQERSDSPEICHYEKSFHKHSATPNYTHCGLFGDLNSADIEGRMD[… human IgG1 Fc …]
notes: also called hRGM A light chain - fc; hRGMA 47-168/HuIgGFc
